Experimental data as given in PubChem BioAssay AID686979 (National Center for Advancing Translational Sciences (NCATS), 2013).
The whole screen tested about 420,000 compounds, of which about 50,000 (12%) were called active. Inconclusive means that the source gave no clear call. Such entries were picked first, then a sample of the others. Calls follow the shape of the dose curve; as a rule, active = well fitted inhibition curve with a large enough effect; inconclusive = small, poorly fitted or top-dose-only effect; inactive = flat fitted curve, though single readings scatter. No potency is given beside an inconclusive call; the fits are too rough.

test: qHTS for Inhibitors of human tyrosyl-DNA phosphodiesterase 1 (TDP1): qHTS in cells in presence of CPT; conditions: chicken DT40 Tdp1-/-;hTDP1 cells + 20 nM CPT, ATP luminescence, 48 h; series mostly up to 46.2 µM; also: nearly all actives have a fitted effect of over 55% in size
Method in brief: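 Chicken DT40 Tdp1-/- cells complemented with human TDP1, 400 cells/well, exposed to compounds plus 20 nM camptothecin for at least 48 h at 37 C; viability read as ATP content by CellTiter-Glo luminescence.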
Potency is read from the fitted curve at half-maximal effect; tags tell the direction and shape of the fitted curve.

Compound	Potency
Cc1ccc(S(=O)(=O)Nc2ccc(NC(=O)Nc3ccc(F)cc3F)cc2)cc1	inconclusive [inhibitor, single point]
O=C(NCC(O)c1ccc([N+](=O)[O-])cc1)C1CCCCC1 (stereo unspecified)	inactive
O=[N+]([O-])c1cc(-c2cnc3ccccc3n2)ccc1Cl	inactive
CCOC(=O)C1(C)C=C(Nc2ccc(C(N)=O)cc2)C(=O)N1c1ccccc1 (stereo unspecified)	inconclusive [inhibitor, full curve, poor fit]
COC(=O)Nc1ccc(=O)n(Cc2c(Cl)cccc2Cl)c1	inactive
CCOC(=O)c1cc(S(=O)(=O)Nc2ccc(OC)c(Cl)c2)[nH]n1	inconclusive [inhibitor, partial curve]
COC(=O)CN1C(=O)Nc2ccc(Br)cc2C1c1ccccc1Cl (stereo unspecified)	inconclusive [inhibitor, partial curve, poor fit]
COc1cc(/C=C/C(=O)c2ccc(NS(=O)(=O)c3ccc(C)cc3)cc2)cc(OC)c1O	inconclusive [inhibitor, single point]
COc1ccc2c(Sc3ccccc3)c(C(=O)NCc3cccc(OC)c3OC)[nH]c2c1	inconclusive [inhibitor, single point]
COc1ccccc1Nc1nc(N)nc(CN2CCN(c3ccccc3)CC2)n1	inactive
CCOc1ccc(CCNC(=O)CCCc2nnc3n(CC(C)C)c(=O)c4sccc4n23)cc1	inconclusive [inhibitor, single point]
O=C(Nc1cc(S(=O)(=O)N2CCCCC2)ccc1N1CCOCC1)c1ccc(F)cc1	inconclusive [inhibitor, partial curve]
CCc1nc2sc3ccccc3c(=O)c2c(=O)n1Cc1ccco1	inconclusive [inhibitor, single point]
CC1(C(=O)NS(=O)(=O)c2ccccc2Cl)CCN1C(=O)C1(c2ccccc2)CCCC1 (stereo unspecified)	inconclusive [inhibitor, single point]
O=C1C=CC(=O)N1c1ccc(O)cc1	active: 2.59 µM
Cc1ccc(C(c2nnnn2CCc2ccccc2)N2CCSCC2)cc1 (stereo unspecified)	active: 16.4 µM
O=C(CSc1nnc(-c2ccccc2Cl)o1)Nc1ccccn1	inconclusive [inhibitor, single point]
CN1C(=O)Cc2cc(S(=O)(=O)CCC(=O)Nc3cccc(C(F)(F)F)c3)ccc21	inactive
CCOc1ccc(NC(=O)CCS(=O)(=O)c2ccc(C)cc2)cc1	inactive
CCCN1C2CCCC1CC(NC(=O)NC13CC4CC(CC(C4)C1)C3)C2 (stereo unspecified)	active: 16.4 µM
CCC(CC)c1nnc(NC(=O)Cc2c[nH]c3ccccc23)s1	active: 25.9 µM
COc1cc2oc3ccccc3c2cc1N(CC(=O)N1CCCCC1)S(=O)(=O)c1ccc(C)cc1	inconclusive [inhibitor, single point]
C=CCn1c(=S)[nH]c2scc(-c3ccco3)c2c1=O	inconclusive [inhibitor, partial curve, poor fit]
COCCNC(=O)c1ccc2c(c1)N(Cc1cccc(Cl)c1)C(=O)c1ccccc1S2(=O)=O	inconclusive [inhibitor, single point]

Compound	Potency
COc1ccccc1Oc1nc2c(c(=O)n(C)c(=O)n2C)n1Cc1cccc(Br)c1	inconclusive [inhibitor, single point]
COc1ccccc1C(=O)NCC(=O)N/N=C/c1ccc([N+](=O)[O-])cc1	inactive
O=C(OCC(=O)N1CCOCC1)c1ccccc1OCc1ccccc1Cl	inconclusive [inhibitor, single point]
COc1cc(C(=O)Oc2cccc(C(=S)N3CCOCC3)c2)cc(OC)c1OC	inactive
O=S(=O)(Nc1ncccn1)c1ccccc1	inconclusive [inhibitor, single point]
Cc1ccc(S(=O)(=O)N2[C@@H](c3ccc(C(C)(C)C)cc3)C(C(=O)O)=CC[C@H]2c2ccc(C(C)C)cc2)cc1	inconclusive [inhibitor, single point]
Oc1ccc(/C=N\Nc2nncc(-c3ccccc3)n2)cc1	inconclusive [inhibitor, single point]
Cc1ccc(CNC(=O)c2ccc(COc3ccccc3)cc2)cc1	inactive
O=CNc1cc(-c2cccc(O)c2)cn2c(-c3ccc(F)cc3)cnc12	active: 18.4 µM
C[C@H](CO)N1C[C@H](C)[C@@H](CN(C)S(=O)(=O)c2cccs2)Oc2ccc(NS(=O)(=O)c3ccccc3)cc2C1=O	inconclusive [inhibitor, single point]
COc1ccc(C(=O)CCC(=O)NC2=NCCS2)cc1	inconclusive [inhibitor, single point]
CCc1ccc(CN(C(=O)COc2c(C)cccc2C)C2CCS(=O)(=O)C2)cc1 (stereo unspecified)	inconclusive [inhibitor, single point]
Cc1cnc(C)c(-c2ccc(F)c3c2OC(CNC(=O)/C=C/c2cccs2)C3)n1 (stereo unspecified)	inconclusive [inhibitor, single point]
CC1=NN(C(=O)Cn2nc([N+](=O)[O-])c(Br)c2C)C(O)(C(F)(F)F)C1 (stereo unspecified)	active: 23.1 µM
CC(=O)Nc1ccc(CN(C)c2c(C)nc3ccc(C(=O)NC4CCN(Cc5ccccc5)CC4)cn23)cc1	inconclusive [inhibitor, single point]
CCC(C)NC(=O)C(=O)NCc1ccccn1 (stereo unspecified)	inactive
COc1ccc(CNC(=O)CS(=O)Cc2nc(-c3ccc(C)cc3)oc2C)cc1 (stereo unspecified)	inconclusive [inhibitor, partial curve, poor fit]
Cc1ccc(S(=O)(=O)N/N=C\c2ccc3c(c2)OCO3)c(C)c1	inconclusive [inhibitor, partial curve]
COc1ccccc1N1CCN(C(=O)C2CCN(S(=O)(=O)c3ccc4c(c3)CC(C)N4C(C)=O)CC2)CC1 (stereo unspecified)	inconclusive [inhibitor, single point]
CCn1c(Cc2cccc3ccccc23)nnc1SCC(=O)Nc1nccs1	inconclusive [inhibitor, partial curve]
COc1ccc(NC(=O)c2ccc(NC(=O)N3CCSc4ncccc43)cc2)cc1	inconclusive [inhibitor, single point]
CN(CCOc1ccc(Br)cc1)C(=O)CNC(=O)c1ccc2ccccc2c1	inactive
CCOC(=O)C(NC(=O)NCc1ccc(OC)cc1)(OCC)C(F)(F)F (stereo unspecified)	inactive
CCN1CCN(CCOc2cccc(Oc3ccccc3)c2)CC1	inconclusive [inhibitor, single point]

Compound	Potency
CCOC(=O)C(NCCc1ccccc1F)(NC(C)=O)C(F)(F)F (stereo unspecified)	inactive
O=C1NC(Cc2ccccc2)c2nc3ccc(Cl)cc3c(=O)n2-c2cc3ccccc3cc21 (stereo unspecified)	inconclusive [inhibitor, single point]
CCCCC(CCc1ccccn1)C(=O)c1ccccc1 (stereo unspecified)	active: 23.1 µM
CC1CN(S(=O)(=O)c2cccc(C(F)(F)F)c2)CC(C)O1 (stereo unspecified)	inactive
Clc1nssc1=Nc1ccccc1	active: 16.4 µM
Cc1ccc(C)c(-c2csc(NC(=O)C3=COCCO3)n2)c1	active: 20.6 µM
COc1ccc(-c2coc3c(C(=O)NCC4CC4)cccc23)c(C)c1	active: 6.51 µM
COCCNC(=O)C1CCN(Cc2cc3ccccc3n2Cc2ccc(C)cc2)CC1	active: 16.4 µM
Cc1ccc2cc3cc(C(=O)N4CCCCCC4)oc3nc2c1	inconclusive [inhibitor, single point]
COCCn1c(CNC(=O)c2cccc(C)c2)nc2cccnc21	inactive
COc1ccccc1NC(=O)C1=C(C)Nc2nc(SCc3ccccc3)nn2C1c1cccc(O)c1 (stereo unspecified)	inconclusive [inhibitor, single point]
Cc1cc(C)n(-c2cccc(C(=O)NCC3Cc4cccc(-c5cccnc5)c4O3)c2)n1 (stereo unspecified)	inconclusive [inhibitor, single point]
CCOc1ccc(-c2nc(-c3cccnc3)no2)cc1OCC	inconclusive [inhibitor, partial curve]
O=C(COC(=O)c1ccccc1OCc1ccc(F)cc1)NCC1CCCO1 (stereo unspecified)	inconclusive [inhibitor, partial curve]
CSc1nc2ccc3nc(NC(=O)c4ccccc4)sc3c2s1	inconclusive [inhibitor, single point]
Cc1oc(-c2ccccc2F)nc1CS(=O)CC(=O)NC1CCCC1 (stereo unspecified)	inactive
O=C(NCc1cccnc1)C1CCC(CNS(=O)(=O)c2ccc(Cl)cc2)CC1 (stereo unspecified)	inconclusive [inhibitor, single point]
O=C1NC[C@@H](CCCCN2C[C@H](Cc3ccc(O)cc3)N(CCC3CCCCC3)C(=O)C2=O)N(CC2CCCCC2)C1=O	inactive
CCN(CC)S(=O)(=O)c1cccc(NC(=O)CSc2nnc(N)s2)c1	inactive
CC(=O)c1c(C)[nH]c(C(=O)CSc2nnc(NC3CC3)s2)c1C	inconclusive [inhibitor, single point]
CCC(C)NC(=O)CSc1nnc(-c2cc(-c3cccs3)nc3ccccc23)o1 (stereo unspecified)	inconclusive [inhibitor, single point]
CCc1nc(NCCN2CCOCC2)c(C#N)c2c1CCCC2	active: 3.26 µM
CN(C)Cc1c(O)ccc2cc(-c3nc4ccccc4n3C)c(=O)oc12	inactive
